Results taken from PubChem BioAssay AID686979 (National Center for Advancing Translational Sciences (NCATS), 2013).
The whole screen tested about 420,000 compounds, of which about 50,000 (12%) were called active. Inconclusive means that the source gave no clear call. Such entries were picked first, then a sample of the others. Calls come from the whole dose curve; as a rule, active = well fitted inhibition curve with a large enough effect; inconclusive = small, poorly fitted or top-dose-only effect; inactive = flat fitted curve, though single readings scatter. Potencies of inconclusive entries are left out as doubtful fits.

assay: qHTS for Inhibitors of human tyrosyl-DNA phosphodiesterase 1 (TDP1): qHTS in cells in presence of CPT; details: chicken DT40 Tdp1-/-;hTDP1 cells + 20 nM CPT, ATP luminescence, 48 h; activity change, negative = growth inhibition: at 46.2 µM (top of the series) unless noted; note: nearly all actives have a fitted effect of over 55% in size
In short: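 Chicken DT40 Tdp1-/- cells stably complemented with human TDP1 were seeded at 400 cells/well in medium containing 20 nM camptothecin, exposed to pin-transferred compounds, and grown at 37 °C for at least 48 hr. Viability was read as ATP luminescence.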
% is set by controls: 0 for no effect and ±100 for the full control effect; potency is the fitted concentration of half-maximal effect; tags give direction and shape of the fitted curve.

SMILES | Potency | activity change, negative = growth inhibition
CSC[C@H]1CN(CCc2ccccc2)C(=O)[C@@H]1CC(=O)Nc1ccc(Br)cc1 | inconclusive [inhibitor, single point] | 
O=C(NCc1ccccc1Cl)c1csc([C@@H]2O[C@H](CO)[C@@H](O)[C@H]2O)n1 | inconclusive [inhibitor, partial curve] | 
Cc1ccc(CCNC(=O)c2cc(-c3ccccc3)n[nH]2)cc1 | inconclusive [inhibitor, single point] | 
Cc1cccc(OCC(=O)Nc2ccc(S(=O)(=O)N3CCCC3)cc2)c1 | inconclusive [inhibitor, partial curve, poor fit] | 
C=CCn1cnnc1SCC(=O)N(C1CCCCC1)C1CCS(=O)(=O)C1 (configuration not stated) | inactive | 
CCCCN1CC(COc2ccccc2)Oc2cccc(F)c2S1(=O)=O (configuration not stated) | inconclusive [inhibitor, single point] | 
COc1ccc(N(CC(=O)N2CCOCC2)S(C)(=O)=O)cc1OC | inactive | 
COc1ccc2nc(C(F)(F)C(F)(F)F)c(C#N)c(N)c2c1 | inconclusive [inhibitor, single point] | 
CC(C)c1ccc(NS(=O)(=O)c2ccc3c(c2)oc(=O)n3C)cc1 | active: 18.4 µM | 
CN(C)c1ccc(CC(=O)N2CCCC(c3cc(C(=O)Nc4ccccc4)no3)C2)cc1 (configuration not stated) | inconclusive [inhibitor, single point] | 
FC(F)(F)c1cccc(-c2nnc3ccc(C(F)(F)F)cn23)c1 |  | inconclusive: -31.2% [inhibitor]
C/C(CCC(C)C)=N\NS(=O)(=O)c1ccc(C)c([N+](=O)[O-])c1 | inactive | 
CCN(C(=O)c1sc2nc3n(c(=O)c2c1C)CCCC3)c1ccccc1F | inconclusive [inhibitor, partial curve, poor fit] | 
NCc1csc(Nc2cc(Oc3ccccc3)ncn2)n1 | inconclusive [inhibitor, single point] | 
Cc1ccc(OCc2cc(C(=O)N(C)Cc3cnc4ccccn34)no2)cc1C | active: 14.6 µM | 
Cc1ccc(C(C(=O)NCc2ccco2)N(C(=O)CNC(=O)c2cccs2)c2c(C)cccc2C)cc1 (configuration not stated) | inconclusive [inhibitor, single point] | 
Cc1cccc(C(=O)Nc2ccc(O)c3c(=O)cc(-c4ccccc4Cl)oc23)c1 | inconclusive [inhibitor, full curve, poor fit] | 
COc1ccc(C2C(C(C)=O)=C(C)N=c3s/c(=C\c4ccco4)c(=O)n32)c(OC)c1 (configuration not stated) | active: 8.2 µM | 
CCOC(=O)c1cc(CC)sc1NC(=O)c1cc(OC)c(OC)c(OC)c1 | inconclusive [inhibitor, single point] | 
CC(C)c1ccc(N(C(=O)c2ccco2)C(C(=O)NC2CCCC2)c2ccncc2)cc1 (configuration not stated) | inactive | 
Cc1cc(-c2cccc(Br)c2)c(C#N)c(N)n1 | inactive | 
CN(C)c1ccc(C(CNC(=O)c2ccc(C(C)(C)C)cc2)N2CCCC2)cc1 (configuration not stated) | active: 13 µM | 
O=C(Nc1ccc(-c2ccccc2)cc1)c1ccc2c(c1)S(=O)(=O)c1ccccc1C2=O | inactive | 

SMILES | Potency | activity change, negative = growth inhibition
Cc1cn2c(=O)cc(COc3ccc(NC(=O)c4ccc(C(C)(C)C)cc4)cc3)nc2s1 | inconclusive [inhibitor, full curve] | 
CCC1=C(c2ccc(C)cc2)S(=O)(=O)N=C1N1CCC(C(=O)Nc2ccccc2C(=O)OC)CC1 | inconclusive [inhibitor, single point] | 
COc1ccc(Nc2nnc(C)c3ccccc23)cc1 | inactive | 
c1cncc(-c2nc3ccccc3[nH]2)c1 | inactive | 
N=c1n(CCN2CCCCC2)c2ccccc2n1CC(=O)c1cccc([N+](=O)[O-])c1 | inconclusive [inhibitor, single point] | 
Cc1cc(SCC(=O)OCC(=O)N2CCN(C(=O)c3ccco3)CC2)c(C)cc1Br | inactive | 
O=C1Cc2ccccc2C1=C1C=c2ccccc2=C1 | inconclusive [inhibitor, single point] | 
COc1cc2sc(-c3ccccc3OC)c(-c3ccc(OCCN4CCOCC4)cc3)c2cc1OC | inconclusive [inhibitor, single point] | 
COc1ccc(S(=O)(=O)N(CC(=O)Nc2ccc(S(=O)(=O)N3CCOCC3)cc2)Cc2ccc(F)cc2)cc1 | active: 20.6 µM | 
CCOC(=O)NCc1ccc(S(=O)(=O)Nc2c(C)cccc2C)cc1 | inactive | 
Nc1c2c(nc3ccccc13)CCCC2=O | inactive | 
CC(C)C[C@H]1CN(CCCC[C@H]2CNC(=O)C(=O)N2CCc2ccccc2)C(=O)C(=O)N1CCC1CCCCC1 | inactive | 
COc1ccccc1N1CCN(S(=O)(=O)c2ccccc2)CC1 |  | inconclusive: -39.3% [inhibitor]
CCOC(=O)c1ccc(NC(=O)CN2C(=O)C(C)(C)c3ccccc32)cc1 | inconclusive [inhibitor, partial curve, poor fit] | 
O=C(CCC(=O)N1CCCCC1)Nc1nnc(C2CCCCC2)s1 | inactive | 
O=c1[nH]c(=S)c2[nH]c(=S)n(-c3ccccc3)c2[nH]1 | inactive | 
Cc1cc(C)nc(NNS(=O)(=O)c2ccc(Cl)cc2)n1 | inconclusive [inhibitor, partial curve, poor fit] | 
CCC(c1nnnn1Cc1ccco1)N(CCc1ccccc1)Cc1cc2cccc(C)c2[nH]c1=O (configuration not stated) | inconclusive [inhibitor, single point] | 
O=C(O)c1ccc(N2C(=O)CSC2=S)cc1 | inconclusive [inhibitor, single point] | 
Cc1ccc(C)c(NC(=O)c2cnn(-c3ccc(F)cc3F)c2C2CCNCC2)c1 | active: 20.6 µM | 
O=C(c1ccc(S(=O)(=O)N2CCC(c3nc4ccccc4s3)CC2)cc1)N1CCOCC1 | inconclusive [inhibitor, partial curve] | 
COc1cccc(N2CCN(C(=O)c3ccc(CS(=O)c4ccccc4Cl)o3)CC2)c1 (configuration not stated) | active: 0.0291 µM | 
CN(C)CCCNC(=O)C(=O)NCC(c1cccs1)S(=O)(=O)c1ccc(F)cc1 (configuration not stated) |  | inconclusive: -38.2% [inhibitor]

SMILES | Potency | activity change, negative = growth inhibition
CCOc1cc(N2CCOCC2)c(OCC)cc1NC(=O)c1c(-c2ccccc2)noc1C | inconclusive [inhibitor, partial curve, poor fit] | 
O=C(COc1cccnc1[N+](=O)[O-])N1N=C(c2ccc(Cl)cc2)CC1c1ccco1 (configuration not stated) | inconclusive [inhibitor, partial curve, poor fit] | 
Cc1ccc(-c2nc(-c3cccnc3)no2)cc1 | inconclusive [inhibitor, single point] | 
COc1cccc(OCC(O)CNC(C)c2ccccc2)c1 (configuration not stated) | inconclusive [inhibitor, single point] | 
CC(=O)NC(Cc1ccc(C(C)C)cc1)C(=O)NC1CCN(C(=O)c2cccc(C)c2)CC1 (configuration not stated) | inconclusive [inhibitor, single point] | 
C=CCN1C(=O)C(O)(CC(=O)c2ccc(-n3cccc3)cc2)c2ccccc21 (configuration not stated) | inconclusive [inhibitor, single point] | 
Fc1ccccc1C(NCCc1ccc(Cl)cc1)c1nnc(-c2ccccc2)o1 (configuration not stated) | active: 18.4 µM | 
CCN1C(=O)[C@@H]2[C@@H](c3ccc(-c4ccc5c(c4)OCO5)cc3)N3CCCC[C@@]3(C(=O)OC)[C@@H]2C1=O | active: 14.6 µM | 
O=C(CN1C(=O)NC2(CCOc3ccccc32)C1=O)Nc1cccc([N+](=O)[O-])c1 (configuration not stated) | inconclusive [inhibitor, single point] | 
COc1cccc(C(C)(O)c2nc(-c3cccc(C(C)C)c3)cs2)c1 (configuration not stated) | inconclusive [inhibitor, single point] | 
O=C(NC1CC1)c1ccc2c(c1)C1C3CCC(C3)C1C(c1ccccc1)N2 (configuration not stated) | inconclusive [inhibitor, single point] | 
CCCOC(=O)c1ccc(Oc2cn[nH]c2-c2ccc(O)cc2O)cc1 | inconclusive [inhibitor, single point] | 
COC(=O)C1=C(N)Oc2cc(C)n(CC3CCCO3)c(=O)c2C1c1ccc(Cl)cc1 (configuration not stated) | inconclusive [inhibitor, single point] | 
COc1cccc(Nc2nc(NCC3CCCO3)c3ccccc3n2)c1 (configuration not stated) | active: 6.51 µM | 
CCCC12CN3CC(CCC)(CN(C1)C3c1ccc(OCc3ccccc3)cc1)C2=O (configuration not stated) | inconclusive [inhibitor, partial curve] | 
O=C(CSc1ncc2c(n1)-c1ccccc1N(Cc1ccc(Cl)cc1)S2(=O)=O)c1ccc(Cl)cc1 | inconclusive [inhibitor, partial curve, poor fit] | 
Cc1ccc(OCC(COCc2ccccc2)NC(C)C)cc1 (configuration not stated) | inconclusive [inhibitor, single point] | 
Cc1ccc(Nc2ccc(N3CCN(C(=O)c4cccc([N+](=O)[O-])c4)CC3)nn2)cc1 | inconclusive [inhibitor, single point] | 
Cn1c(=O)c2nc(NCc3ccccc3)cnc2n(C)c1=O | inconclusive [inhibitor, partial curve] | 
CCN(CC)CCn1c2c(c(SCC(=O)Nc3ccc(C(C)C)cc3)nc1=O)CCCC2 | inconclusive [inhibitor, single point] | 
CC(C)C(=O)N1CCN(c2ccccc2NC(=O)c2ccc([N+](=O)[O-])o2)CC1 | active: 16.4 µM | 
